Results taken from PMC4336329 (PLoS ONE, 2015).
The campaign covered roughly 310,000 compounds. About 2,200 (0.71%) showed an effect of 50% or more. The effect is printed as a negative number. The list shows a part of the results.

molecular target: human ether-à-go-go-related gene (hERG) potassium channel (human, UniProt Q12809); assay: primary screen, population patch clamp on CHO cells stably expressing hERG
Sequence (Q12809 whole entry, looked up): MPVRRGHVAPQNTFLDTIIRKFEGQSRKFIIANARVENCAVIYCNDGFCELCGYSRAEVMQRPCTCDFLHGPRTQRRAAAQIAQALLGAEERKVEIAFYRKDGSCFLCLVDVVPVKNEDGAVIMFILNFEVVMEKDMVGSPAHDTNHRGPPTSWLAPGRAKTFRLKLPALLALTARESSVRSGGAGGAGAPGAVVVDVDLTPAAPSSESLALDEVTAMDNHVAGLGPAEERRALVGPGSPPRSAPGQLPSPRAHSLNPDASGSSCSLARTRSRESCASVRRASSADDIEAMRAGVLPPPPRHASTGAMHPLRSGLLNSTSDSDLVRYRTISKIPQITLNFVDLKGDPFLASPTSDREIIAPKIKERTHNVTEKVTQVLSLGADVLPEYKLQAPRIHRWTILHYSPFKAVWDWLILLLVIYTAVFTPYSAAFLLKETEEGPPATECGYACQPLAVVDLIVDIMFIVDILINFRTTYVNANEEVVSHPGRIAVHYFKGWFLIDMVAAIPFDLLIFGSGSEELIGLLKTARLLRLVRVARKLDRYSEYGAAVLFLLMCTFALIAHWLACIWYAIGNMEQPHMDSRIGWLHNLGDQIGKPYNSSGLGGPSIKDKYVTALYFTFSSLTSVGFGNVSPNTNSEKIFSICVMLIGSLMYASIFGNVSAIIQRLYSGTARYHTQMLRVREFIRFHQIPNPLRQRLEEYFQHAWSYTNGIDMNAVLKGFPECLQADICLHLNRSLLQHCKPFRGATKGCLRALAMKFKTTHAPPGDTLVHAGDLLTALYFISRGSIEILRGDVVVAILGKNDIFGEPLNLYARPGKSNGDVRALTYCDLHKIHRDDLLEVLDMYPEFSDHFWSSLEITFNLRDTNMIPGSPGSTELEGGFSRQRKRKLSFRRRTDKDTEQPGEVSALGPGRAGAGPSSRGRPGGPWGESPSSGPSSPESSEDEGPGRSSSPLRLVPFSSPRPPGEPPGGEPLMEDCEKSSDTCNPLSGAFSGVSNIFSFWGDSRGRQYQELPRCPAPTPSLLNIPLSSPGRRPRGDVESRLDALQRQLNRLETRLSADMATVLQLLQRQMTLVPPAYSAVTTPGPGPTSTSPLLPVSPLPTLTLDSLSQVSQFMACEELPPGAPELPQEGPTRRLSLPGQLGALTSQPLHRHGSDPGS

| Compound | hERG current change (%, negative = inhibition) at 1uM |
| --- | --- |
| Cc1ccc(C(=O)NNC(=O)c2ccc(SCC3CCCO3)c([N+](=O)[O-])c2)cc1 (stereo not shown) | 5.2% |
| Cc1ccc(NS(=O)(=O)c2csc(C(N)=O)c2)c(C)c1 | 31.1% |
| COc1ccc(C(=O)NCC(=O)N/N=C/C=C/c2ccccc2)cc1OC | -35.7% |
| CCN(CC)S(=O)(=O)c1ccc(Cl)c(NC(=O)COC(=O)c2ccc(O)cc2)c1 | -4.92% |
| Cc1ccc(Cl)cc1NC(=O)C1CCCN(c2cnccn2)C1 (stereo not shown) | 5.5% |
| O=C(COC(=O)Cc1c(F)cccc1Cl)NC(=O)c1ccccc1 | 10.4% |
| O=C(c1ccncc1)N(c1ccc2oc3c(c2c1)CCCC3)S(=O)(=O)c1cccc([N+](=O)[O-])c1 | 2.86% |
| CC1=C2[C@H]3OC(=O)[C@@H](C)[C@@H]3CC[C@@]2(C)C=CC1=O | 10.6% |
| C=CCn1c(SCC(=O)O)nnc1-c1ccccc1 | -8.04% |
| N#CC1=C(N)Oc2n[nH]c(-c3cccs3)c2C1c1ccsc1 (stereo not shown) | 7.12% |
| Cc1ccc(Cl)cc1N1CCN(C(=O)CCS(=O)(=O)c2cccc3nonc23)CC1 | -0.669% |
| O=S1(=O)N(Cc2ccc(F)cc2)CCCN1Cc1ccccc1Cl | 3.85% |
| COc1ccc(S(=O)(=O)N2CCc3ccccc32)cc1OC | 7.38% |
| Cc1nn(CC(=O)N2c3ccccc3NC(=O)C2(C)C)c(C)c1[N+](=O)[O-] | 17.4% |
| CC(C)(C)CC(C)(C)Nc1c(-c2ccc(O)cc2)nc2cnccn12 | 2.55% |
| CCOc1ccc(C(=O)OC(C)CN2CCCCC2)cc1.Cl (stereo not shown) | 4.48% |
| C=CCNc1nc(N)c(C(=C(C#N)C#N)c2ccccc2)s1 | 22% |
| Nc1nc(C2CCCN2S(=O)(=O)c2ccc(Cl)cc2)cs1 (stereo not shown) | 2.44% |
| CC(=O)N(C)c1ccc(NCc2cc(=O)oc3cc(C)c(O)cc23)cc1 | -4.96% |
| COc1cc2[nH]cc(C(=O)NCc3cccs3)c(=O)c2cc1OC | 4.55% |
| NC(=O)c1oc2ccccc2c1NC(=O)CCc1ccccc1 | 7.35% |
| Cc1cc(C)c(-c2c(O)c3cnn(-c4ccccc4)c3[nH]c2=O)c(C)c1 | 12.9% |
| Cc1cc(C)cc(N2C(=O)CC(N(C(=O)c3ccco3)c3cc(C)cc(C)c3)C2=O)c1 (stereo not shown) | 5.58% |
| Cc1ccc(C(=O)Nn2cnnc2)c(Cl)c1 | 11.5% |
| O=C(NCc1ccco1)C1CCN(C(=O)c2ccc(Cl)cc2Cl)CC1 | 8.2% |
| O=C(Nc1ccc(Cl)cc1)N(Cc1cccnc1)Cc1ccco1 | -21.8% |
| O=C(O)c1c[nH]c2c(C(F)(F)F)cccc2c1=O | 3.38% |
| Cc1onc(-c2ccccc2Cl)c1C(=O)Nc1ccc(-n2nncc2C(C)(C)C)cc1 | 4.52% |

| Compound | hERG current change (%, negative = inhibition) at 1uM |
| --- | --- |
| CC1CCCC(NC(=O)COC(=O)c2cccs2)C1C (stereo not shown) | 10.7% |
| O=[N+]([O-])c1ncccc1OCc1ccccc1Br | 6.25% |
| CCOc1ccc(Nc2nc(N)nc(CN3CCN(c4ccccc4F)CC3)n2)cc1 | -25.6% |
| O=C(Nc1ccc(N2CCOCC2)cc1)C1CCN(C(=O)OCc2ccccc2)CC1 | 10.7% |
| Cc1ccc(N(CC(=O)NCc2ccccc2Cl)S(=O)(=O)c2c(C)noc2C)cc1 | 13.1% |
| CCCC(C(=O)NC1CCCC1)N(Cc1ccccc1Cl)C(=O)c1snc(C(N)=O)c1N (stereo not shown) | 8.74% |
| O=C(N/N=C/c1c(O)n(Cc2ccc(F)cc2)c(=O)[nH]c1=O)c1ccccc1 | 3.75% |
| CCc1c(C(=O)Nc2cc(C(=O)OC)ccc2C)csc1C | 4.87% |
| O=C(N/N=C/c1ccco1)c1cc(-c2ccccc2)n[nH]1 | -0.0654% |
| Cc1nn(C)cc1CN(C)C(=O)c1ccc(OC2CCN(Cc3ccccn3)CC2)cc1 | 12.5% |
| Cc1sc2ncn(CC(=O)NCC(=O)N(C)C3CCCCC3)c(=O)c2c1C | -9.12% |
| CC(C)CNC(=O)c1ccccc1NC(=O)CCSc1ccccc1 | 12.9% |
| O=C(Oc1ccc(N(Cc2cccs2)C2=NS(=O)(=O)c3ccccc32)cc1)c1ccccc1 | -5.3% |
| CC1Cc2ccccc2N1CC(=O)Nc1ccc(Cl)c(S(=O)(=O)N(C)C)c1 (stereo not shown) | 1.68% |
| COc1ccc(OC)c(-c2csc(NC(=O)COC(=O)c3ccc(NC(=O)CC#N)cc3)n2)c1 | 13.7% |
| CCN(CC)CCCNC(=O)c1cn(C)c(=O)c2c1c1ccccc1n2C | 14.2% |
| CCCCOc1ncnc2c1[nH]c1ccc(OC)cc12 | 14.4% |
| CC(=O)C(=[N+]=[N-])C(=O)NCc1ccccc1 | 13.9% |
| O=C(O)CSc1nnc(-c2ccccc2Br)n1-c1cccc(C(F)(F)F)c1 | 9.1% |
| COC(=O)c1sc(S(=O)(=O)N2CCC(C)CC2)c(C(=O)OC)c1C | -0.735% |
| CCOc1ccccc1NC(=O)c1ccc(NC(=O)C2CCCO2)cc1 (stereo not shown) | 11.5% |
| N#CCSc1nc2sccc2c(=O)n1-c1ccccc1 | 12.2% |
| O=C(CN(c1cccc(Cl)c1)S(=O)(=O)c1ccccc1)NN=C1CCCC1 | 4.25% |
| O=C(COC(=O)c1ccc(F)c(S(=O)(=O)N2CCOCC2)c1)Nc1ccc2[nH]c(=O)[nH]c2c1 | 16.3% |
| CN(CCc1cn[nH]c1)Cc1nc(C(c2ccccc2)c2ccccc2)no1 | 1.13% |
| CCN(CC)C(=O)N1c2ccccc2CC(N(CC)CC)c2ccccc21 (stereo not shown) | 4.6% |
| CCOC(=O)C1CCCN(C(=O)c2cc3ccc(OC)cc3[nH]2)C1 (stereo not shown) | 5.15% |
